Substitutions are numbered along the chain they refer to. Marks after values point to notes of the source that are not given here.
Assays:
WT M5 mAChR [1] = biological target: T1, WT M5 mAChR (Homo sapiens, UniProt P08912)
T1 sequence (P08912 1-532): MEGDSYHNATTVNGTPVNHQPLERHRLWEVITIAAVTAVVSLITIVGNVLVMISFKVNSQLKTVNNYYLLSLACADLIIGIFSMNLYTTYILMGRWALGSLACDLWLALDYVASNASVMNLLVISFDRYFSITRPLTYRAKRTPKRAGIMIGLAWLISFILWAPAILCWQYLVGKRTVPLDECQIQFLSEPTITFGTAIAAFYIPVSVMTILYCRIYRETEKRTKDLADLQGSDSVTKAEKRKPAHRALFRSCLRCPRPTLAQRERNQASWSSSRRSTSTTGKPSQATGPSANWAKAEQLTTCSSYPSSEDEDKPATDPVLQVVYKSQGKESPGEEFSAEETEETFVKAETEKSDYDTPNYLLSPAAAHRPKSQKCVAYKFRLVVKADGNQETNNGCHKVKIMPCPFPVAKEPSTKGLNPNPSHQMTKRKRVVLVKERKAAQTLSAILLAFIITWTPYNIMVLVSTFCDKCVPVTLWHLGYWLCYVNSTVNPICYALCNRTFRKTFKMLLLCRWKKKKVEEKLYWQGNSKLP

M5−M2 TM1,7,h8 chimera [2] = biological target: T2, M5−M2 TM1,7,h8 chimera (Homo sapiens, UniProt P08172+P08912); test: interaction binding between [^3H]-NMS and ACh in the presence of ML375
[3] = biological target: T3, M5 mAChR EH4 pocket mutant (Homo sapiens, UniProt P08912, A113V/G152A/L156V); test: as above; parameters: expressed in transfected cells; host or cells: Flp-In CHO cells
T3 sequence (P08912 1-532 A113V/G152A/L156V): T1 sequence (P08912 1-532) with A113V, G152A, L156V

M5−M2 TM1,7,h8 chimera [4] = biological target: T2, M5−M2 TM1,7,h8 chimera; test: IP1 accumulation, interaction of ML375 vs ACh; details: M5−M2 TM1,7,h8, CHO cells
M5−M2 ECL chimeras = test: interaction between [^3H]-NMS and ML375 at ECL chimeras; format: binding; details: M5−M2 ECL1, ECL2 and/or ECL3 chimeras, Figure S3
M5−M2 TM3,4,5 chimera [5] = biological target: T4, M5−M2 TM3,4,5 chimera (Homo sapiens, UniProt P08172+P08912); test: IP1 accumulation, interaction of ML375 vs ACh; details: M5−M2 TM3,4,5, CHO cells; N.R. = no response
T4 sequence (P08912 with tags, fused parts or gaps): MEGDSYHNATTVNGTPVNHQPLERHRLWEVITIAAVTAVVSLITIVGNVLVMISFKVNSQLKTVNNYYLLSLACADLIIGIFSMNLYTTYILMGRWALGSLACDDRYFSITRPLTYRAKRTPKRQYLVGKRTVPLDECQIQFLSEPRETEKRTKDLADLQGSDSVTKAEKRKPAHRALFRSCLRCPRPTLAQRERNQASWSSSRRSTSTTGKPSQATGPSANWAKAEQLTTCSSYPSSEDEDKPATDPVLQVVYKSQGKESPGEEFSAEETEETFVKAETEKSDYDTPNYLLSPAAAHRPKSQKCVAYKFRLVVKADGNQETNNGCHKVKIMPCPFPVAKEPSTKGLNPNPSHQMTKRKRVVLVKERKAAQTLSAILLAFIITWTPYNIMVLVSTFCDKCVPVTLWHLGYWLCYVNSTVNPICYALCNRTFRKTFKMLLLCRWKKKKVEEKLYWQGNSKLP
T4 sequence (P08172 93-210): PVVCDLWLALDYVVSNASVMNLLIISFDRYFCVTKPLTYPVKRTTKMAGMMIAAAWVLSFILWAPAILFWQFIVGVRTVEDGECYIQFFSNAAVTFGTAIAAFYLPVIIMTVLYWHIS

[6] = cited from earlier work
M5−M2 TM3,4,5 chimera [7] = biological target: T4, M5−M2 TM3,4,5 chimera; test: interaction binding between [^3H]-NMS and ACh in the presence of ML375
M5−M2 TM2,3,4 chimera = M5−M2 TM2,3,4 chimera (Homo sapiens, UniProt P08172+P08912); test: as above
WT M5 mAChR [8] = biological target: T1, WT M5 mAChR; test: [^3H]-NMS equilibrium competition binding in WT membranes; parameters: expressed in transfected cells
Description: (§1) Radioligand dissociation kinetics experiments were fitted to a monoexponential decay function.[56] […] IC50 values were converted to Ki values using the Cheng-Prusoff equation.[57]

[9] = tested on: M5-T4L(S117R) mAChR, Sf9 cell membranes; test: [^3H]-NMS dissociation kinetics with PEG400 and ML375; format: binding; details: read-out: apparent affinity from [^3H]-NMS dissociation rate constants; absence of ML375, Sf9 cell membranes
Description: Sf9 cells expressing M5-T4L (S117R) mAChR were harvested after 60 h. Sf9 cell membranes were prepared by homogenization and centrifugation. The final membrane pellet was resuspended in 20 mM HEPES pH 7.4 and 0.1 mM EDTA. Protein concentration was determined by absorbance at 280 nm, and membranes were stored at −80 °C. Assays were conducted in UniFilter-96 GF/B plates (PerkinElmer) with 1 μg of membranes per well in a final volume of 300 μL of binding buffer consisting of 20 mM HEPES, 100 mM NaCl, and 10 mM MgCl2 at pH 7.4. […] Nonspecific binding was defined in the presence of 1 μM atropine. Assays were stopped by vacuum filtration and washed three times with ice-cold 0.9% sodium chloride. Plates were allowed to dry before 40 μL of Microscint-0 (PerkinElmer) was added to each well. Radioactivity was measured on a MicroBeta2 microplate counter.
as §1

O=C(c1ccc(F)c(F)c1)N1CCN2C(=O)c3ccccc3[C@@]12c1ccc(Cl)cc1 [ML375, (S)-9b-(4-Chlorophenyl)-1-(3,4-Difluorobenzoyl)-2,3-Dihydro-1H-Imidazo[2,1-a]Isoindol-5(9bH)-One]
log α (ACh), affinity cooperativity between ACh and ML375 (WT M5 mAChR [1]): −1.81 ± 0.02 (12) | log α (ACh), affinity cooperativity between ACh and ML375 (M5−M2 TM1,7,h8 chimera [2]; M5−M2 TM1,7,h8): −3 | log α (NMS), affinity cooperativity between [^3H]-NMS and ML375 (M5−M2 TM1,7,h8 chimera [2]; M5−M2 TM1,7,h8): 0.23 ± 0.04^k (5) | reduction of ML375 affinity vs WT M5 (M5−M2 TM1,7,h8 chimera [2]; M5−M2 TM1, TM7, H8 swap, [^3H]-NMS binding): ~ 10 fold | log α (ACh), affinity cooperativity between ACh and ML375 [3]: −0.71 ± 0.2 (4) | log α (NMS), affinity cooperativity between [^3H]-NMS and ML375 [3]: 0.31 ± 0.05 (4) | PKb, IP1 accumulation for the interaction of ML375 vs ACh (M5−M2 TM1,7,h8 chimera [4]): 5.77 ± 0.12^k (5) | ML375 affinity at ECL chimeras (M5−M2 ECL chimeras): no loss in ML375 affinity | PKb, IP1 accumulation for the interaction of ML375 vs ACh (M5−M2 TM3,4,5 chimera [5]): N.R. | plasma protein binding [6]: high plasma protein binding | modulation of ACh binding by ML375 (M5−M2 TM3,4,5 chimera [7]): complete loss in the modulation of ACh binding | modulation of ACh binding by ML375 (M5−M2 TM2,3,4 chimera): complete loss in the modulation of ACh binding

CCCCc1oc2ccccc2c1C(=O)c1cc(I)c(OCCN(CC)CC)c(I)c1 [amiodarone]
Kb (WT M5 mAChR [8]): 0.955 µM

CC[N+](CC)(CC)CCOc1cccc(OCC[N+](CC)(CC)CC)c1OCC[N+](CC)(CC)CC [gallamine]
Kb (WT M5 mAChR [8]): 9.33 µM

PEG400
Kd [9]: ~40 mM

Source: publication PMC7616173 (ACS chemical neuroscience, 2021)
